Data as given in publication PMC12603276.
Results are given in words; binding and its absence hold for the method and conditions named. Binding seen in cells or lysates may run through a third protein. Some entries that bind do so weakly or less than the wild type. For some assays here: Where a sequence is shown, tags or fusion partners need not be part of it.

Columns and labels:
[1] = molecular target: T1, phosphoglycerate kinase 1 (PGK1), endogenous (human (endogenous in PANC-1 and AsPC-1)) (UniProt P00558); test: co-IP; endogenous proteins; anti-PGK1 immunoprecipitation from PANC-1 and AsPC-1 lysates, with or without IR (4 Gy, 6 h), then immunoblot; also cells pretreated with LY294002 (30 μM), U0126 (20 µM) or SP600125 (25 μM) for 1 h before IR
T1 sequence: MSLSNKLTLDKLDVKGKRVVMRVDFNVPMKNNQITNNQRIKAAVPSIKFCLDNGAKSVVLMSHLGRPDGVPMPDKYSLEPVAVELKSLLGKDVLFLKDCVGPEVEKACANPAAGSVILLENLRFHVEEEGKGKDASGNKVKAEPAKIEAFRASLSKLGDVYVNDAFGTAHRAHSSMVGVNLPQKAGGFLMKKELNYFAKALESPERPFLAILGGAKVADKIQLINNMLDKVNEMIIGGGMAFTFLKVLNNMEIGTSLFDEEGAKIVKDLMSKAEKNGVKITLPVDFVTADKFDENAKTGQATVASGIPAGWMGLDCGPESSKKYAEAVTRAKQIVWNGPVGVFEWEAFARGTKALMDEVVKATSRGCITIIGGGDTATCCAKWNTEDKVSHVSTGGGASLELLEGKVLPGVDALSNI

[2] = molecular target: T1, phosphoglycerate kinase 1 (PGK1), endogenous (human (endogenous in PANC-1 and AsPC-1)); test: condition: only cells pretreated with the CK2 inhibitor TBB (10 μM) before IR; co-IP; endogenous proteins; PANC-1 cells pretreated with the CK2 inhibitor TBB (10 μM) for 1 h before IR (4 Gy, 6 h); immunoprecipitation and immunoblot
WT Flag-rPGK1 (human) = molecular target: T2, WT Flag-rPGK1 (human) (UniProt P00558); test: co-IP; PANC-1 cells expressing WT Flag-rPGK1 or Flag-rPGK1 S256A, with or without IR (4 Gy, 6 h); immunoprecipitation and immunoblot for endogenous MORC2
T2 sequence: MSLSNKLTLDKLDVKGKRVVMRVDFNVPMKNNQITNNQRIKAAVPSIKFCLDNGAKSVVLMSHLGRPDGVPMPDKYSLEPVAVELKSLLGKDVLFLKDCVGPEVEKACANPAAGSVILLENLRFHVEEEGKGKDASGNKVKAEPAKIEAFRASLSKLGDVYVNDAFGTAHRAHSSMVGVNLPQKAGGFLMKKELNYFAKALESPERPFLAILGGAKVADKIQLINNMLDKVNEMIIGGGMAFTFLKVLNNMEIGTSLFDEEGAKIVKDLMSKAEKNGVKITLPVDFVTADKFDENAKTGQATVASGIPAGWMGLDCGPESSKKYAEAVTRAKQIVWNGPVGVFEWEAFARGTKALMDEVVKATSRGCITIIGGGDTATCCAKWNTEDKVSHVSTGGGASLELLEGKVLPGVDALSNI

Flag-rPGK1 S256A (human) = molecular target: T3, Flag-rPGK1 S256A (human) (UniProt P00558); test: as above
T3 sequence: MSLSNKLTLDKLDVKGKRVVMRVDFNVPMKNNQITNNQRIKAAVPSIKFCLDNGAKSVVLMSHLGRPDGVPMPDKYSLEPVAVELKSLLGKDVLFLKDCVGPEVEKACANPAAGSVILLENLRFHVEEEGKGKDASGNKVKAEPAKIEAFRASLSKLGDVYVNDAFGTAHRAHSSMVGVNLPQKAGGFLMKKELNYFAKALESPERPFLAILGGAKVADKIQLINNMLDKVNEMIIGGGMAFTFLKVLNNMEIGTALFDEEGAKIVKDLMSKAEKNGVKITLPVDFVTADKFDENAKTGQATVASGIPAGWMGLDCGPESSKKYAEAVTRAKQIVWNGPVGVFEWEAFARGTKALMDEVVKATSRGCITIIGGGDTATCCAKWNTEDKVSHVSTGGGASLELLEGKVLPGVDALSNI

[3] = molecular target: T1, phosphoglycerate kinase 1 (PGK1), endogenous (human (endogenous in PANC-1 and AsPC-1)); test: condition: only immunoprecipitates treated with CIP (10 units); co-IP; endogenous proteins; PANC-1 cells collected 6 h after IR (4 Gy); immunoprecipitates treated with CIP (10 units), then immunoblot

B1: microrchidia CW-type zinc finger 2 (MORC2), endogenous (enzyme, UniProt Q9Y6X9 1-1032)
chain: MAFTNYSSLNRAQLTFEYLHTNSTTHEFLFGALAELVDNARDADATRIDIYAERREDLRGGFMLCFLDDGAGMDPSDAASVIQFGKSAKRTPESTQIGQYGNGLKSGSMRIGKDFILFTKKEDTMTCLFLSRTFHEEEGIDEVIVPLPTWNARTREPVTDNVEKFAIETELIYKYSPFRTEEEVMTQFMKIPGDSGTLVIIFNLKLMDNGEPELDIISNPRDIQMAETSPEGTKPERRSFRAYAAVLYIDPRMRIFIHGHKVQTKRLSCCLYKPRMYKYTSSRFKTRAEQEVKKAEHVARIAEEKAREAESKARTLEVRLGGDLTRDSRVMLRQVQNRAITLRREADVKKRIKEAKQRALKEPKELNFVFGVNIEHRDLDGMFIYNCSRLIKMYEKVGPQLEGGMACGGVVGVVDVPYLVLEPTHNKQDFADAKEYRHLLRAMGEHLAQYWKDIAIAQRGIIKFWDEFGYLSANWNQPPSSELRYKRRRAMEIPTTIQCDLCLKWRTLPFQLSSVEKDYPDTWVCSMNPDPEQDRCEASEQKQKVPLGTFRKDMKTQEEKQKQLTEKIRQQQEKLEALQKTTPIRSQADLKKLPLEVTTRPSTEEPVRRPQRPRSPPLPAVIRNAPSRPPSLPTPRPASQPRKAPVISSTPKLPALAAREEASTSRLLQPPEAPRKPANTLVKTASRPAPLVQQLSPSLLPNSKSPREVPSPKVIKTPVVKKTESPIKLSPATPSRKRSVAVSDEEEVEEEAERRKERCKRGRFVVKEEKKDSNELSDSAGEEDSADLKRAQKDKGLHVEVRVNREWYTGRVTAVEVGKHVVRWKVKFDYVPTDTTPRDRWVEKGSEDVRLMKPPSPEHQSLDTQQEGGEEEVGPVAQQAIAVAEPSTSECLRIEPDTTALSTNHETIDLLVQILRNCLRYFLPPSFPISKKQLSAMNSDELISFPLKEYFKQYEVGLQNLCNSYQSRADSRAKASEESLRTSERKLRETEEKLQKLRTNIVALLQKVQEDIDINTDDELDAYIEDLITKGD
With B1 the binding [1] was “binds”, the binding [2] was “no binding” and the binding (WT Flag-rPGK1 (human)) was “binds”. The binding (Flag-rPGK1 S256A (human)) was “no binding” and the binding [3] was “no binding”.
